Test results as given in PubChem BioAssay AID624172 (National Center for Advancing Translational Sciences (NCATS), 2012).
Screen size: about 380,000 compounds; about 25 (0.007%) were called active. The inconclusive results got no clear call from the source; some entries with a clear call stand among them for comparison. Calls come from the whole dose curve; as a rule, active = well fitted activation curve with a large enough effect; inconclusive = small, poorly fitted or top-dose-only effect; inactive = no such curve, though single readings can be large or run the other way. Potencies of inconclusive entries are left out as doubtful fits.

molecular target: Glucagon-like peptide 1 receptor (Homo sapiens) (UniProt P43220); experiment: qHTS of GLP-1 Receptor Agonists; conditions: HEK293 GLP-1R CRE-luciferase, luminescence, 4-6 h, cells express a hypersensitive GLP-1R form; activation: at 45.6 µM (top of the series) unless noted; for activation: % of control where 0% means no effect
Text: The overall goal of this project was to develop a novel assay for discovering small molecule ligands for class B1 G protein-coupled receptors (GPCRs). Very few agonists (or inverse agonists) with generally weak activity for this entire group of physiologically important receptors are known to date. To establish proof-of-principle that this critical bottleneck can be overcome with a suitable screening approach, our studies focused on the class B1 receptor for glucagon-like peptide-1 (GLP-1R), a potential therapeutic target for diabetes and neurodegenerative disease.
The assay was developed in a "mix and measure" format using a cell-based functional readout. Toward this goal, stably transfected HEK293 cell clones were established that co-express (i) a cAMP-responsive luciferase reporter gene, and (ii) GLP-1Rs that upon ligand interaction either stimulate (agonists) or inhibit (inverse agonists) luciferase activity. In different cell lines to be used for screening, expressed GLP-1Rs are specifically optimized for high sensitivity detection of either weak agonists (hypersensitive receptor) or inverse agonists (constitutively active receptor mutant). In addition, control cell lines were developed that express either the cAMP-responsive reporter gene without recombinant GLP-1Rs (enabling initial exclusion of GLP-1R independent effects of candidate probes), or the reporter gene together with wild type GLP-1Rs (for confirmation of probe activity at this receptor), or the reporter gene in combination with the constitutively active orphan receptor GPR119 (enabling initial exclusion of GLP-1R independent inhibitory effects of candidate inverse agonists).
To that end, this assay was optimized for 1536-well format and screened against the MLSMR.
NIH Molecular Libraries Probe Production Network [MLPCN]
NIH Chemical Genomics Center [NCGC]
PI Name: Martin Beinborn, Tufts Medical Center
In a white solid 1536-well plate, 6 uL of cells are dispensed in DMEM without phenol red, 10% Nu serum, and 1% pen-strep medium. The plates are then incubated for 12 hours at 37 deg C at 5% CO2 before 23 nL of compounds are added. After a 4-6 hr incubation at37 deg C and 5% CO2, 3 uL of detection reagent are added and after a 12 min incubation at RT, a luminescent read is obtained on the ViewLux.
Potency is the fitted concentration of half-maximal effect; tags give direction and shape of the fitted curve.

Sequence of UniProt P43220 (P43220 whole entry, looked up): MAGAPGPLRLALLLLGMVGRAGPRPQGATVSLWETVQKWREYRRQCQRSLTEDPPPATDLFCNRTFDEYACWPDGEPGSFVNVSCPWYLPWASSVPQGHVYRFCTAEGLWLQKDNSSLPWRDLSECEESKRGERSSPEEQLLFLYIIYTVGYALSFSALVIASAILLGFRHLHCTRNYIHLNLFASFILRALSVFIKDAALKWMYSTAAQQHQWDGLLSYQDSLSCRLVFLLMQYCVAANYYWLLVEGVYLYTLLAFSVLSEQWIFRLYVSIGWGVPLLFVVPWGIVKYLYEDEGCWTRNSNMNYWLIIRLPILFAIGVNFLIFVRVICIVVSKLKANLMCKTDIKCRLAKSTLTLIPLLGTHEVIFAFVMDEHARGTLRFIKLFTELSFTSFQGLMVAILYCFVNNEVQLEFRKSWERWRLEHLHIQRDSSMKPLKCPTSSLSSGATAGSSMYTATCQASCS

Row | SMILES | activation | Potency
1 | COC(=O)c1ccccc1NC(=O)N1CCN(C(=O)c2ccco2)CC1 | inactive: 0.324% | 
2 | O=C(Nc1cccc(S(=O)(=O)NC2=NCCC2)c1)c1ccc(F)cc1F | inconclusive: 37.3% [activator] | 
3 | O=C(COc1ccc(Cl)cc1Cl)NCCCCc1ccccc1 |  | inconclusive [activator, single point]
4 | C[N+](C)(C)CC=O |  | inconclusive [activator, single point]
5 | COc1cc2c(cc1OC)-c1cc(Nc3ccc(N(C)C)cc3)nc(=O)n1CC2 |  | inconclusive [activator, partial curve, poor fit]
6 | CC(C)(C)C1CCC(C(=O)Nc2nccs2)CC1 (stereo unspecified) | inactive: -6.57% | 
7 | C=CCn1c2ccccc2c(=O)c2cc(C#CC3(O)CCCCC3)ccc21 |  | inconclusive [activator, full curve, poor fit]
8 | CCNC(=S)/N=C(/Nc1ccccc1)Nc1nc(C)cc(C)n1 |  | inconclusive [activator, partial curve]
9 | CSCCC(NS(=O)(=O)/C=C/c1ccccc1)C(=O)NCCc1ccc(S(N)(=O)=O)cc1 (stereo unspecified) | inconclusive: 45.3% [activator] | 
10 | CC(OC(=O)c1cccs1)C(=O)NCc1ccc2c(c1)OCO2 (stereo unspecified) | inactive: 0.983% | 
11 | c1ccc2c(c1)ccc1nnc(-c3ccc4c(c3)OCO4)n12 |  | inconclusive [activator, partial curve, poor fit]
12 | CCOc1ccccc1NC(=O)COC(=O)/C=C/c1ccc(OC)c(OC)c1 |  | inconclusive [activator, partial curve, poor fit]
13 | CN(C)c1ncccc1-c1nc2ccccc2s1 | inactive: 17.8% | 
14 | COc1ccc(NC(=O)C2(C)CCN2Cc2ccc(OC)c3ccccc23)cc1OC (stereo unspecified) |  | inconclusive [activator, partial curve]
15 | NCCOc1ccccc1Cc1ccccc1 | inactive: -10.7% | 
16 | CCOC(=O)c1c(NC(=O)CSc2nnc(CNC(=O)c3ccco3)n2C)sc2c1CCC2 |  | inconclusive [activator, partial curve, poor fit]
17 | COc1nc(Nc2ccc(OC)c(Cl)c2)nc(OC)n1 |  | inconclusive [activator, single point]
18 | C/C(=N\NC(N)=S)c1ccc(Cl)s1 | inactive: 10.7% | 

Row | SMILES | activation | Potency
19 | CC(C)NCC(O)(c1ccc(Cl)cc1)c1ccc(Cl)cc1 | inactive: 16.7% | 
20 | O=C(C1CCCN(Cc2ccc3c(c2)OCO3)C1)N1CCCC1 (stereo unspecified) | inactive: -4.68% | 
21 | COc1cc2c(cc1OC)CN(C(=O)Cc1ccccc1)CC2 |  | inconclusive [activator, partial curve, poor fit]
22 | CSc1nc2ccc(NC(=O)CSc3nnc(N)s3)cc2s1 |  | inconclusive [activator, single point]
23 | CN1/C(=C\C=C(C#N)C#N)C(C)(C)c2ccccc21 | inactive: 0.11% | 
24 | COc1cccc(C(=O)/C=C2\NCCc3cc(OC)c(OC)cc32)c1 |  | inconclusive [activator, partial curve, poor fit]
25 | CC1N(C(=O)N(C)C)CCN1S(=O)(=O)c1ccccc1 (stereo unspecified) | inactive: 4.95% | 
26 | O=C(NCCN1CCCC1)c1ccccc1Cl | inactive: -4.61% | 
27 | O=C(Nc1ccc(N2CCOCC2)c(Cl)c1)c1ccccc1F | inactive: 5.6% | 
28 | CCC(C(=O)NC1CCCC1)N(Cc1cccs1)C(=O)Cn1nnc(-c2ccc(OC)c(OC)c2)n1 (stereo unspecified) |  | inconclusive [activator, partial curve]
29 | CCCN(Cc1nnc(-c2ccccc2Cl)o1)C(=O)c1cc2ccccc2o1 |  | inconclusive [activator, partial curve, poor fit]
30 | CC(=O)N1c2ccc(C)cc2Sc2c1ccc1ccccc21 |  | inconclusive [activator, partial curve]
31 | CCC(=O)Nc1ccc(NC(=O)c2ccco2)c(OC)c1 | inactive: 4.62% | 
32 | Cc1cc2nc(C)n(CCCN)c2cc1C | inactive: -3.12% | 
33 | CCOC(=O)COc1ccc2c(=O)cc(-c3ccccc3)oc2c1 |  | inconclusive [activator, partial curve, poor fit]
34 | CN1CCN(c2nc(-c3cccc([N+](=O)[O-])c3)nc3ccccc23)CC1 |  | inconclusive [activator, full curve, poor fit]
35 | CC(=O)c1cccc(N2C(=O)C3C4CCC(C4=C(C)C)C3C2=O)c1 (stereo unspecified) |  | inconclusive [activator, single point]
36 | COc1ccc(CN(C)CC(=O)Nc2cccc3ccccc23)cc1F |  | inconclusive [activator, partial curve]
